# This is one part of the list.
# Tested on: PfHDP1 homeodomain (GST-tagged)
# Assay: gcPBM binding intensity (ln(normalized median fluorescence intensity)); higher = stronger DNA binding
# How it was run: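 An Agilent 4 × 180k array of primer-extended double-stranded 36-bp intergenic genomic probes, with negative controls, was incubated for 1 h with GST-tagged P. falciparum DNA-binding domains expressed in E. coli. Alexa488 anti-GST antibody detected bound protein, scanned at 488 nm. Binding intensity is the highest Masliner-normalised natural-log median intensity across replicate spots of either probe orientation.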
row,Sequence,gcPBM binding intensity (ln)
1,TTTTTGTATGCTTCCCGACTACATTATGTCGTAAAT [GTGCAC_negctrl_site164],6.68
2,AGTTCATATTTAAAAAGTACATATTTAAAAACTTCT [XGTACX_site4882],6.16
3,TTTGAACTTTTATATACACACATTATTATAGTATAG [CACACA_site6851],6.71
4,AAAAAAAAAAAAAAATGTACTTTTATTATTAATATA [XGTACX_site6357],6.23
5,ATGCATATATTTATGTGTACATATATTTGTAGGGGG [XGTACX_site6063],8.07
6,ATATCGTTTTTAAATTGTACATTCACTATAGAATAA [XGTACX_site6442],6.87
7,TTTATTTTTCATTGGGGTACACAAGTTTATTTTTGA [XGTACX_site4262],7.03
8,TTCTTTGTTTTTTTTTTTTTTTTAAAAGATAATATT [XGTACX_negctrl_site381],6.38
9,TATATCGCCTTCAAAAGTACTCATATAAAAAAAAAA [XGTACX_site7123],6.14
10,ATTTTTTCTTTTCGATGTACCCTTCTTATTCTTTAT [XGTACX_site3782],7.45
11,ATATATTTATTTTGTGCACACAACGCAAACCTTTTA [CACACA_site3508],11.3
12,TTTTTTTTATTATAAATATATATATTATAAAACGAA [XGTACX_negctrl_site189],6.72
13,ACCCAAGAGAAAAGAGAAAGAAATATGTGTATATTG [GTGCAC_negctrl_site214],6.86
14,AAAAAAAACAGACACACACACACATATACATACATA [CACACA_site2665],6.77
15,TTATAGTAATAATAATGTACATTTATACACATATAT [XGTACX_site1965],6.76
16,ATATATATATATATAACATGCAAAGTTCAAAAAAAA [TGCATGCA_site943],9.14
17,AAATTAAAAATAATTACACACATAGAAAAGTTATAT [CACACA_site7137],6.44
18,TTTTCAGAAAGACATGCATACAAAAATAAAAAAGAT [TGCATGCA_site814],7.38
19,TTTTGCAAATATTACTGTACACAATCTCATATAATT [XGTACX_site2584],8.7
20,TCAAAAAAAATTTTAGTGCATATTTTAGTCAAAACA,8.93
21,CATTCTACAATAAAAAGTACATATATATATTATATA [XGTACX_site921],6.61
22,AAATTAAATGATAGAGCATGCGCTAAAAATGAGAAA [TGCATGCA_site937],7.66
23,TTTTTATAACATAAAAGTACATATTTTTAATTTAAT [XGTACX_site4394],5.95
24,ACACATATAATAGTTACATGCAAAAATACTTTTATT [TGCATGCA_site785],6.55

# Source: the supplement of paper PMC11417369
